Measurements published in patent US5159002A, “Method for purifying dermostatin A and dermostatin B” (Xechem Inc., priority 1990, dated 1992).

Test system: H9 cells
Assay: Survival/viability of HIV-infected H9 cells (trypan blue exclusion), % control
[1] = Table V, 0.01 μg/ml, HIV-1, 5760 min
[2] = Table V, 0.1 μg/ml, HIV-1, 5760 min
[3] = Table V, 1.0 μg/ml, HIV-1, 5760 min
[4] = Table V, 5 μg/ml, HIV-1, 5760 min

SMILES | Cell Survival (% Control) [1] [% Control] | Cell Survival (% Control) [2] [% Control] | Cell Survival (% Control) [3] [% Control] | Cell Survival (% Control) [4] [% Control] | Cell Survival (% Control) (Table IV, conc. 0.01 (g/ml as printed), added with HIV, 4 days) | Cell Survival (% Control) (Table IV, conc. 0.1 (g/ml as printed), added with HIV, 4 days) | Cell Survival (% Control) (Table IV, conc. 1.0 (g/ml as printed), added with HIV, 4 days) | Cell Survival (% Control) (Table IV, conc. 10 (g/ml as printed), added with HIV, 4 days)
CC(C)C1OC(=O)/C=C/C=C/C=C/C=C/C=C/C=C/CC(O)C(C)C(O)CC(O)CC(O)CC(O)CC(O)CC(O)CC(O)CC(O)/C=C/C1C (stereo not drawn) [Dermostatin A] | 0 | 18 | 92 | 99 | – | – | – | –
CCC(C)C1OC(=O)/C=C/C=C/C=C/C=C/C=C/C=C/CC(O)C(C)C(O)CC(O)CC(O)CC(O)CC(O)CC(O)CC(O)CC(O)/C=C/C1C (stereo not drawn) [Dermostatin B] | 0 | 0 | 87 | 97 | – | – | – | –
C[C@@H]1[C@H](O)[C@@H](C)/C=C/C=C/CC/C=C/C=C/C=C/C=C/C(O[C@H]2O[C@H](C)[C@@H](O)[C@H](N)[C@@H]2O)CC2O[C@](O)(CC(O)C(O)CCC(O)CC(O)CC(O)CC(=O)O[C@H]1C)CC(O)C2C(=O)O (stereo partly drawn) [Nystatin, reference compound] | – | – | – | – | 49 | 58 | 83 | 110
